{"source": "PubChem BioAssay AID686970", "about": "(National Center for Advancing Translational Sciences (NCATS), 2013)", "note": "“And” between values parts separate entries of the source, which are not always exact repeats. Equal values may be shown once. Screen size: about 360,000 compounds; about 6,000 (1.7%) were called active. This list was built around the results that the source calls inconclusive (neither active nor inactive); the mix of calls is not that of the screen. Calls follow the shape of the dose curve; as a rule, active = well fitted cell-killing curve with a large enough effect; inconclusive = small, poorly fitted or top-dose-only effect, or effect the other way; inactive = flat fitted curve, though single readings scatter. Potencies of inconclusive entries are doubtful fits and often do not repeat. Potency is read from the fitted curve at half-maximal effect; tags tell the direction and shape of the fitted curve."}
{"assay": "qHTS for induction of synthetic lethality in tumor cells producing 2HG: qHTS for the HT-1080-NT fibrosarcoma cell line;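 also: NT is the 2HG producing partner of a matched IDH1 knockdown line; nearly all actives have a fitted effect of over 55% in size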;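 as to activity, negative = less viability: 0% = DMSO-treated cells and -100% = media-only wells without cells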", "conditions": "HT-1080-NT fibrosarcoma viability, CellTiter-Glo ATP luminescence, 48 h; activity, negative = less viability: at 46.1 µM (top of the series)", "summary_of_the_method": "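750 cells/well, RPMI + 5% FBS; 2 h settle, compound pin-transfer, 48 h at 37 degrees C. CellTiter-Glo 10 min RT, luminescence. Normalized to DMSO and media-only wells.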"}
{"compound": "O=[N+]([O-])c1ccc2nc(N3CCNCC3)ccc2c1", "Potency": "inconclusive: 9.2 µM [cytotoxic, partial curve]"}
{"compound": "CCC1=C(C)C(N2CCOCC2)=NP(N2CCOCC2)(N2CCOCC2)=N1", "Potency": "inactive"}
{"compound": "CSCCC(c1nnnn1Cc1ccccc1)N1CCC2(CC1)C(=O)NCN2c1ccccc1", "note": "(stereo not drawn)", "activity, negative = less viability": "inconclusive: -2.89%"}
{"compound": "CCCCn1c(O)c(/C(CC)=N/N2CCCCC2c2cccnc2)c(=O)[nH]c1=S", "note": "(stereo not drawn)", "Potency": "inconclusive: 23.1 µM [cytotoxic, single point]"}
{"compound": "O=P(Nc1cccc(Cl)c1)(Oc1ccccc1)Oc1ccccc1", "Potency": "inconclusive: 18.4 µM [cytotoxic, single point]"}
{"compound": "CC(Cc1ccccc1)NCC(=O)Nc1cc(N(C)C)nc2ccccc12", "note": "(stereo not drawn)", "Potency": "inconclusive: 32.6 µM [cytotoxic, single point]"}
{"compound": "Nc1c(C(=O)NCCc2ccccc2)c2nc3ccccc3nc2n1CCN1CCOCC1", "Potency": "active: 17.8 µM"}
{"compound": "O=c1[nH]c(=O)n(CCc2ccccc2)c(O)c1C=NC1CC1", "Potency": "inactive"}
{"compound": "O=[N+]([O-])c1ccc(Sc2nc3ccccc3o2)c([N+](=O)[O-])c1", "Potency": "active: 12.6 µM"}
{"compound": "O=[N+]([O-])c1ccccc1-c1cc(-c2ccccc2)cc(-c2ccccc2)[n+]1Cc1ccccc1Cl", "Potency": "active: 7.31 µM"}
{"compound": "CCCCCn1c(N)c(C(=O)NCc2cccs2)c2nc3ccccc3nc21", "Potency": "inconclusive: 17.8 µM [cytotoxic, single point]"}
{"compound": "Oc1ccc(-[n+]2c(-c3ccccc3)cc(-c3ccccc3)cc2-c2ccccc2)cc1", "Potency": "active: 11.6 µM"}
{"compound": "COC(=O)C1=C(c2cccc(OC)c2OC)C[C@@H]2CC[C@H]1N2C(=O)NCC1CC1", "Potency": "inactive"}
{"compound": "O=C1C=C2c3ccccc3CC(C(=O)O)C2CC1", "note": "(stereo not drawn)", "Potency": "inactive"}
{"compound": "CC[C@H](C)[C@@H]1NC(=O)CNC(=O)c2csc(n2)[C@H](C(C)(C)O)OC(=O)C(C)(C)[C@H](CCCC(C)(Cl)Cl)OC(=O)c2csc1n2", "Potency": "active: 2.06 µM"}
{"compound": "CC(C(=O)Nc1ccc(Br)cc1C(=O)c1ccccc1)N1CCOCC1", "note": "(stereo not drawn)", "Potency": "inactive"}
{"compound": "CCOP(=O)(OCC)OCC", "Potency": "inactive"}
{"compound": "CC(=O)Nc1ccccc1C(=O)OCC(=O)c1ccc2ccccc2c1", "Potency": "inconclusive: 35.5 µM [cytotoxic, single point]"}
{"compound": "COc1ccc(C2C(C#N)=C(N)Oc3c2c(=O)oc2ccccc32)cc1Cn1cc([N+](=O)[O-])cn1", "note": "(stereo not drawn)", "Potency": "inactive"}
{"compound": "Cc1ccc(N2C(=O)/C(=C/c3ccc(CN(CCC#N)S(C)(=O)=O)o3)C(=O)NC2=S)cc1", "Potency": "inactive"}
{"compound": "O=C1NCN(c2ccccc2)C12CCN(C(c1cccs1)c1nnnn1-c1ccc3c(c1)OCCO3)CC2", "note": "(stereo not drawn)", "Potency": "inconclusive: 16.4 µM [cytotoxic, single point]"}
{"compound": "CC(C)N(C(=O)CCl)c1ccccc1", "Potency": "active: 3.66 µM"}
{"compound": "CCC(=O)Nc1cc(C(=O)N2CCC3(CC2)OCCO3)ccc1S(=O)(=O)c1ccc(C)cc1", "Potency": "inactive"}
{"compound": "COc1cccc(O)c1CN1CCCC(C(=O)c2ccccc2SC)C1", "note": "(stereo not drawn)", "Potency": "inconclusive: 4.61 µM [cytotoxic, full curve]"}
{"compound": "c1cc2n(c1)-c1c(ccc3c1OCO3)CNC2c1ccc2c(c1)OCO2", "note": "(stereo not drawn)", "Potency": "inconclusive: 20.6 µM [cytotoxic, partial curve]"}
{"compound": "C=C(C)[C@H]1CN[C@H](C(=O)O)[C@H]1CC(=O)O", "Potency": "inconclusive: 29.1 µM [rising, single point]"}
{"compound": "COC(=O)C1=C(c2ccc(F)cc2OCc2ccccc2)C[C@@H]2CC[C@H]1N2C(=O)NCCOc1ccccc1Cl", "Potency": "inconclusive: 20.6 µM [cytotoxic, single point]"}
{"compound": "O=C1CN=C(c2ccc(Br)cc2)c2oc3ccccc3c2N1", "Potency": "active: 14.6 µM"}
{"compound": "C=C(C)[C@@]12OC3(c4ccccc4)O[C@@H]1C1[C@@H]4O[C@]4(CO)[C@@H](O)[C@]4(O)C(=O)C(C)=C[C@H]4[C@@]1(O3)[C@H](C)[C@H]2OC(=O)/C=C/C=C/c1ccccc1", "note": "(stereo partly drawn)", "Potency": "inconclusive: 0.651 µM [cytotoxic, full curve]"}
{"compound": "C#C[C@]1(O)CCC2C3C(=O)C=C4C(Cl)=CCC[C@]4(C)C3CC[C@@]21C", "note": "(stereo partly drawn)", "Potency": "active: 10.3 µM"}
{"compound": "CCCCCN1C(=O)c2ccccc2[C@@]2(C(=O)OCC)Cc3cc(Cl)ccc3[C@@H]12", "Potency": "inconclusive: 23.1 µM [cytotoxic, single point]"}
{"compound": "O=C1NC2C(=CC(O)C(O)C2O)c2cc3c(cc21)OCO3", "note": "(stereo not drawn)", "Potency": "inconclusive: 1.46 µM [cytotoxic, full curve]"}
{"compound": "COC1C(O)C(C)OC(OC2CCC3(C)C(CCC4C3C(O)CC3(C)C(C5=CC(=O)OC5)CCC43O)C2)C1O", "note": "(stereo not drawn)", "Potency": "active: 1.46 µM"}
{"compound": "O=C(NC1CCCCC1)Oc1cc2oc(=O)sc2cc1Cl", "Potency": "inactive"}
{"compound": "CC1[C@H]2Cc3ccc(O)cc3[C@]1(C)CCN2CCc1ccccc1", "note": "(stereo partly drawn)", "Potency": "inconclusive: 18.4 µM [cytotoxic, single point]"}
{"compound": "COC(=O)C1=C(c2ccc(OC(F)(F)F)cc2)C[C@@H]2CC[C@H]1N2C(=O)N1CCC(C)CC1", "Potency": "inconclusive: 20.6 µM [cytotoxic, single point]"}
{"compound": "COc1ccc(NC(=O)c2cn(CCC#N)nc2-c2ccc([N+](=O)[O-])cc2)cc1", "Potency": "inconclusive: 20.6 µM [cytotoxic, single point]"}
{"compound": "COc1cc2c(c(OC)c1O)-c1ccc(OC)c(=O)cc1C(NC(=O)C(F)(F)F)CC2", "note": "(stereo not drawn)", "Potency": "active: 0.013 µM"}
{"compound": "C(#CCN1CCCCC1)CN1CCCCC1", "activity, negative = less viability": "inconclusive: 12.3%"}
{"compound": "COC(=O)C1=C(c2ccc(Cl)c(C(F)(F)F)c2)C[C@@H]2CC[C@H]1N2C(=O)NCc1ccc2c(c1)OCO2", "Potency": "inconclusive: 29.1 µM [rising, single point]"}
{"compound": "COc1ccc(C(c2nnnn2Cc2ccccc2)N2CCC3(CC2)C(=O)NCN3c2ccccc2)cc1", "note": "(stereo not drawn)", "Potency": "inconclusive: 29.1 µM [cytotoxic, single point]"}
{"compound": "COc1ccc(-n2nnnc2C(c2ccnc3ccccc23)N2CCC3(CC2)C(=O)NCN3c2ccccc2)cc1", "note": "(stereo not drawn)", "Potency": "inconclusive: 29.1 µM [cytotoxic, single point]"}
{"compound": "O=C(/C=C/c1ccccc1)N1Cc2ccccc2-n2nncc2C1", "Potency": "inactive"}
{"compound": "CCOC(=O)C1(CCc2ccccc2)CCN(Cc2csc(C(C)=O)c2)CC1", "Potency": "inconclusive: 18.4 µM [cytotoxic, partial curve]"}
{"compound": "CN1C(=O)C(=Cc2ccccc2OCc2ccccc2Cl)C(=O)N(C)C1=O", "Potency": "active: 16.4 µM"}
{"compound": "NP(=O)(OCCCCc1ccccc1)Oc1ccccc1Cl", "note": "(stereo not drawn)", "Potency": "inconclusive: 29.1 µM [rising, single point]"}
{"compound": "COc1ccc(S(=O)(=O)N2c3ccc(F)cc3CCC2C)cc1", "note": "(stereo not drawn)", "Potency": "active: 1.84 µM"}
{"compound": "Cc1ccc(C)c(-n2c(C)nc3ccccc3c2=O)c1", "Potency": "inconclusive: 29.1 µM [cytotoxic, single point]"}
{"compound": "CC(C)CNC(=O)c1c(N)n(Cc2ccc3c(c2)OCO3)c2nc3ccccc3nc12", "Potency": "active: 20.6 µM"}
{"compound": "CCOC(=O)C1=C(N)Oc2c(c(=O)oc3ccccc23)C12C(=O)N(C)c1ccccc12", "note": "(stereo not drawn)", "Potency": "inactive"}
{"compound": "O=c1c2ccccc2nc(/C=C/c2ccc(F)cc2)n1-c1ccccc1O", "Potency": "active: 23.1 µM"}
{"compound": "C[C@]12CC[C@H]3[C@@H](CC[C@]4(O)C[C@@H](O)CC[C@]34C=O)[C@@]1(O)CC[C@@H]2C1=CC(=O)OC1", "Potency": "active: 1.16 µM"}
{"compound": "Nc1c(C(=O)NCc2ccco2)c2nc3ccccc3nc2n1CCN1CCOCC1", "Potency": "inconclusive: 12.6 µM [cytotoxic, partial curve]"}
{"compound": "Cc1nc2cc(-c3ccc(Cl)cc3)nn2c(C)c1CCC(=O)N1CCC2(CC1)OCCO2", "Potency": "inactive"}
{"compound": "O=C(/C=C/c1cccs1)c1cc(Cl)ccc1OC(=O)N1CCOCC1", "Potency": "inconclusive: 18.4 µM [cytotoxic, single point]"}
{"compound": "CC/C(=N\\Nc1ccccc1)c1c(O)[nH]c(=O)[nH]c1=O", "Potency": "inconclusive: 0.731 µM [cytotoxic, full curve, poor fit]"}
{"compound": "O=[N+]([O-])c1oc2ccc3ccccc3c2c1CCO", "Potency": "inconclusive: 29.1 µM [cytotoxic, single point]"}
{"compound": "CCOC(=O)c1c(N)n(CCCOC(=O)c2ccco2)c2nc3ccccc3nc12", "Potency": "active: 23.1 µM"}
{"compound": "Cc1ccc(OP(=O)(Nc2cccc(C)c2)Oc2ccc(C)cc2)cc1", "Potency": "inconclusive: 18.4 µM [cytotoxic, single point]"}
{"compound": "COc1ccc(-n2nnnc2C(c2cccc3ccccc23)N2CCC(n3c(=O)[nH]c4ccccc43)CC2)cc1", "note": "(stereo not drawn)", "Potency": "inconclusive: 13 µM [cytotoxic, partial curve]"}
{"compound": "O=C1NC(=O)N(c2ccccc2)C(=O)/C1=C\\C=C\\c1ccccc1", "Potency": "inconclusive: 5.8 µM [cytotoxic, full curve]"}
{"compound": "COC(=O)C1=C(c2ccc(F)cc2F)C[C@@H]2CC[C@H]1N2C(=O)N1CCCCC1", "Potency": "inactive"}
{"compound": "COc1ccc(N/N=C/c2c(O)n(-c3cccc(C)c3)c(=O)[nH]c2=O)cc1", "Potency": "active: 11.6 µM"}
{"compound": "CCn1c(O)c(C=NCc2cccs2)c(=O)[nH]c1=O", "Potency": "inactive"}
{"compound": "C/C=C1/C[N+]2(C)CCC34C(=C(C=O)[C@H]1C[C@@H]32)Nc1ccccc14", "note": "(stereo partly drawn)", "Potency": "inconclusive: 29.1 µM [rising, single point]"}
{"compound": "CCC(C)NC(=O)CN1C(=O)CN=C(c2ccccc2)c2ccccc21", "note": "(stereo not drawn)", "Potency": "inconclusive: 13 µM [rising, partial curve]"}
{"compound": "CN(C)c1ccc(/C=C/c2cc[n+](C)c3ccccc23)cc1", "Potency": "inconclusive: 29.1 µM [cytotoxic, single point] and inconclusive: 14.6 µM [cytotoxic, partial curve]"}
{"compound": "CC(C)[C@H]1C(=O)O[C@H](C(C)C)C(=O)N(C)[C@@H](C(C)C)C(=O)O[C@H](C(C)C)C(=O)N(C)[C@@H](C(C)C)C(=O)O[C@H](C(C)C)C(=O)N1C", "Potency": "active: 4.11 µM"}
